Test results published in publication PMC4336329 (PLoS ONE, 2015).
Among all 310,000 compounds or so, about 2,200 (0.71%) showed an effect of 50% or more. The effect is printed as a negative number. The list shows a part of the results.

These compounds were tested against human ether-à-go-go-related gene (hERG) potassium channel (human, UniProt Q12809) (assay: primary screen, population patch clamp on CHO cells stably expressing hERG).
human ether-à-go-go-related gene (hERG) potassium channel, sequence (Q12809 whole entry, looked up): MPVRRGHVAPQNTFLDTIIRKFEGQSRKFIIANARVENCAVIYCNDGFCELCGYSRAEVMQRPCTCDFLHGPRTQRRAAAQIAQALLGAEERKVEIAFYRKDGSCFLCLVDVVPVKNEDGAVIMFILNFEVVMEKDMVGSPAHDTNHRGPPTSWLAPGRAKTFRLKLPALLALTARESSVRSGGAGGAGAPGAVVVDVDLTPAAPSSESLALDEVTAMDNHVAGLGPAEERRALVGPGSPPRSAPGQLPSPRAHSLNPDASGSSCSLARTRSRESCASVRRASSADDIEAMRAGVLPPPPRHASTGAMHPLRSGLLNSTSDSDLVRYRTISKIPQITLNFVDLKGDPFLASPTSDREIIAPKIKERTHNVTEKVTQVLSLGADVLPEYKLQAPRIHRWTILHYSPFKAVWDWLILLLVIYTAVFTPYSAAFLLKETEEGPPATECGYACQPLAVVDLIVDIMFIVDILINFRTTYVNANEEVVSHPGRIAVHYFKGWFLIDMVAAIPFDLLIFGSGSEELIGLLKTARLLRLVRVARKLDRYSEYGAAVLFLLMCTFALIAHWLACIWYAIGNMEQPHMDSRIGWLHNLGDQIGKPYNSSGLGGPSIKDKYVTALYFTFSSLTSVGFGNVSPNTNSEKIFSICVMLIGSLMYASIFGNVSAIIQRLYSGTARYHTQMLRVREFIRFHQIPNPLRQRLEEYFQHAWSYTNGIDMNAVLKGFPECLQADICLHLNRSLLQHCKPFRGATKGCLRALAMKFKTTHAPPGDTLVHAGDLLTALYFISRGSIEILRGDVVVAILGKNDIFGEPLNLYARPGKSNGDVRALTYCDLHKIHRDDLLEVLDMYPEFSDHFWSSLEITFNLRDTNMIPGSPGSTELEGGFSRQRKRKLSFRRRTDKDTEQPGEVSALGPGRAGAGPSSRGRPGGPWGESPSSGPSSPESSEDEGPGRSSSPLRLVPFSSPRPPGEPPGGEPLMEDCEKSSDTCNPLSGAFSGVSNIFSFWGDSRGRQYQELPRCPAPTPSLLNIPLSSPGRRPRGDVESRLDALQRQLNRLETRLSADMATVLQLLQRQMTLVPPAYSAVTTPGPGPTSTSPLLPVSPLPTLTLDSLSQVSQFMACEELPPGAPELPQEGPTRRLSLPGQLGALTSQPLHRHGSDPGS

| SMILES | hERG current change (%, negative = inhibition) at 1uM |
| --- | --- |
| Cc1cc(OCC(=O)N(C)c2ccccc2)cc2c1C(=O)CC(C)(C)O2 | 13.6% |
| Cc1ccsc1/C=N/n1c(-c2ccccc2)n[nH]c1=S | 7% |
| S=c1[nH]nc(-c2ccc(Cl)cc2)n1-c1ccc2c(c1)OCCO2 | 7.4% |
| CCOC(=O)Cc1csc(NC(=O)Cc2ccc(Br)cc2)n1 | 6.73% |
| O=C(CN(C(=O)CCC(=O)Nc1nccs1)c1ccc(F)cc1)NCc1ccco1 | 11.7% |
| CCOc1ccccc1Nc1ccc(C(=O)O)cc1[N+](=O)[O-] | 6.51% |
| O=C(NC1CCN(S(=O)(=O)c2cccc(F)c2)CC1)c1ccc(F)cc1 | 12.3% |
| O=C(Cn1cncn1)NCCCc1ccccc1 | 8.5% |
| Cc1cnc(=O)[nH]c1SCc1ccc(C(F)(F)F)cc1 | 23% |
| O=C(/C=C/c1ccc(Br)cc1)NC(=O)c1ccccc1O | 15.9% |
| C=CCOc1nc2c(c(=O)n(C)c(=O)n2C)n1Cc1ccc(Cl)cc1 | 6.43% |
| CCCCOC(=O)c1ccc(NC(=O)CSc2nnnn2C)cc1 | 15.4% |
| COc1ccccc1/C=C1\SC(=S)N(CC(=O)NC2CCS(=O)(=O)C2)C1=O (centres unmarked) | -8.65% |
| CC(=O)Nc1ccc(NC(=O)C23CC4CC(C2)CC(n2cnc(Br)n2)(C4)C3)cc1 | -33.1% |
| COC(=O)c1cc(C(=O)OCC(=O)NC2CCS(=O)(=O)C2)cc([N+](=O)[O-])c1 (centres unmarked) | 1.14% |
| Cc1cc(NC(=O)CSc2nc(C(C)C)nc3c2c(=O)n(C)c(=O)n3C)no1 | 13.5% |
| O=C(Nc1cnc2ccccc2c1)N1CCCCC1 | 8.03% |
| COc1cccc(/C=C/c2ccc3ccccc3n2)c1OC(C)=O | 17.8% |
| CCOC(=O)N1CCC(NC(=O)C2CCCN(Cc3nc(-c4ccc(CC)cc4)oc3C)C2)CC1 (centres unmarked) | -39.3% |

| SMILES | hERG current change (%, negative = inhibition) at 1uM |
| --- | --- |
| CN(C)S(=O)(=O)c1cccc(C(=O)NCC(=O)NC2CCN(Cc3ccccc3)CC2)c1 | 9.62% |
| Cc1ccc2c(c1)[nH]c1c(=O)n(CCCN3CCOCC3)cnc12 | -5.55% |
| CCCCCC(=O)NC(=S)NNC(=O)CC | 10.6% |
| CCCN1CCN(C(=O)c2c(Cl)cnn2C)CC1 | 3.15% |
| O=C(O)c1ccc(NC(=O)c2ccc(COc3ccccc3)o2)cc1 | 7.72% |
| COc1cc(/C=C2/SC(=S)N(C)C2=O)ccc1OC(=O)c1ccco1 | 4.16% |
| CCCCC1=CC2=CC(=O)C(C)(OC(=O)CC)C(=O)C2=CN1Cc1ccc(OC)cc1 (centres unmarked) | -4.02% |
| CC1(C)SC(=Nc2ccccc2)N(S(=O)(=O)c2ccccc2)C1=O | 2.54% |
| CNC(=O)c1[nH]cnc1C(=O)N[C@@H](C)C(=O)OCc1ccccc1 | 7.72% |
| COc1cc2c(cc1OC)C(c1ccc(N(C)C)cc1)NCC2.Cl (centres unmarked) | 10.3% |
| Cc1ccc(S(=O)(=O)Nc2ccc3c(c2)OCCO3)c(C)c1NS(C)(=O)=O | 12.1% |
| COc1ccc(NS(=O)(=O)c2cccc(C(=O)NC3CCC(O)CC3)c2)cc1 (centres unmarked) | 6.55% |
| Cc1cc(NC(=O)CN2CCN(c3ccccc3O)CC2)no1 | -9.32% |
| COc1cccc(C(=O)N/N=C(/CCC(=O)O)c2ccccc2)c1 | 6.54% |
| Cc1ccc(C)n1CCN1CCN(C(=O)CSc2nc3ccccc3nc2N2CCOCC2)CC1 | -11.1% |
| Cc1ccc(NC(=S)N(CCN(C)C)C(C)c2ccco2)c(C)c1 (centres unmarked) | -1.27% |
| Cc1ccc(NC(=O)CN2C(=O)S/C(=C/c3ccc(-c4cc(C(=O)O)ccc4C)o3)C2=O)cc1C | 7.92% |
| O=C(NN1C(=O)C2C3c4ccccc4C(c4ccccc43)[C@@H]2C1=O)c1ccccc1 (some centres unmarked) | 10.8% |
| COc1cc(NC(=O)Cn2cnc(S(=O)(=O)N3CCc4ccccc43)c2)cc(OC)c1OC | 10% |

| SMILES | hERG current change (%, negative = inhibition) at 1uM |
| --- | --- |
| CN(C)/C=N/c1ncc(C(=O)c2ccccc2)s1 | 13.5% |
| Cc1cccc(C(=O)N(Cc2ccc(C)o2)C2CCS(=O)(=O)C2)c1 (centres unmarked) | -17.2% |
| O=C(CSCc1ccc([N+](=O)[O-])cc1)N/N=C/c1ccncc1 | -19.5% |
| O=C(/C=C1\NCC2c3ccccc3CCN2C1=O)c1ccccc1 (centres unmarked) | 5.83% |
| N#Cc1ccc(C(=O)OCC(=O)Nc2cccc(S(=O)(=O)N3CCCCC3)c2)cc1 | -4.16% |
| Cc1ccc(CN=C(N)Nc2nc(C)cc(C)n2)cc1.Cl | -19.5% |
| Cc1cc(C)c(NC(=O)CN(C)C(=O)CNC(=O)c2cccs2)c(C)c1 | 9.26% |
| Cc1ccc2oc(-c3ccc(NC(=O)c4cccnc4)cc3)nc2c1 | 6.73% |
| CCOC(=O)C1=C(C)N=C2SC(C)C(=O)N2C1c1ccc(OC(C)=O)c(OC)c1 (centres unmarked) | 11.8% |
| Cc1cc(C(=O)C(C)OC(=O)c2ccc(NC(=O)CC#N)cc2)c(C)n1-c1ccccc1 (centres unmarked) | 14.7% |
| Cc1ccc(OCC(=O)N2CCC(N3CCCCCC3)CC2)cc1 | -5.71% |
| Cc1c([N+](=O)[O-])cc(C(=O)Oc2cccc(C(=S)N3CCOCC3)c2)cc1[N+](=O)[O-] | 2.85% |
| CCN(CC)CCn1c(NCc2ccc(OC)cc2)nc2ccccc21 | -25.4% |
| COc1ccc(NC(=O)Cn2c(C(C)C)nc(C)cc2=O)cc1Cl | 9.99% |
| CCOc1nc(N2CCOCC2)nc(C)c1[N+](=O)[O-] | -0.713% |
| CCOC(=O)N1CCN(C(=O)c2ccc3ccccc3c2)CC1 | 16.1% |
| Cc1cnc(NS(=O)(=O)c2ccccc2)c(Br)c1 | 9.81% |
| C=CCN(CC=C)C(=S)NC(=O)/C=C/c1ccc(C)cc1 | 10.5% |
